The record followed here is paper PMC7016594.

Amino acid sequences for entries named in this document (tags omitted).
UniProt P35462: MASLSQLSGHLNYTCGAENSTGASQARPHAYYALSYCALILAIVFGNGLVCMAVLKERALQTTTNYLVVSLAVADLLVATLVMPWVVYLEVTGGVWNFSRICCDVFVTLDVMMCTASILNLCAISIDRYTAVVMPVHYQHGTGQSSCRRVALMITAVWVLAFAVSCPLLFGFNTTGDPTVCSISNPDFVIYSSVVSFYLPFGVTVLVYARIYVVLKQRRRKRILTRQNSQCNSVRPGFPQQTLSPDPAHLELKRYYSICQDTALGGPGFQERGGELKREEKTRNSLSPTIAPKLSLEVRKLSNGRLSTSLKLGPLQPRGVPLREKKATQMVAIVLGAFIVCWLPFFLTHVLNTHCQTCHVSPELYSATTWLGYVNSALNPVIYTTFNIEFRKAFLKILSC
UniProt Q92847: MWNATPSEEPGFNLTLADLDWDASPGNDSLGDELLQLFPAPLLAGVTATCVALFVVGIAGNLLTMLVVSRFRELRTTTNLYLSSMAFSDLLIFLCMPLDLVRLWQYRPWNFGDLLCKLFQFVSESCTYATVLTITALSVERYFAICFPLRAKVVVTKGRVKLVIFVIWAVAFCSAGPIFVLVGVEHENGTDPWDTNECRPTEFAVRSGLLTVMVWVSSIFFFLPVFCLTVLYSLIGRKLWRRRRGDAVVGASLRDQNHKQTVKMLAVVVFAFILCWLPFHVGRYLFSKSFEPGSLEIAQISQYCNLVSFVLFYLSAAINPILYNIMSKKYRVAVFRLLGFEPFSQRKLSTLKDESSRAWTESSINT
UniProt P48039: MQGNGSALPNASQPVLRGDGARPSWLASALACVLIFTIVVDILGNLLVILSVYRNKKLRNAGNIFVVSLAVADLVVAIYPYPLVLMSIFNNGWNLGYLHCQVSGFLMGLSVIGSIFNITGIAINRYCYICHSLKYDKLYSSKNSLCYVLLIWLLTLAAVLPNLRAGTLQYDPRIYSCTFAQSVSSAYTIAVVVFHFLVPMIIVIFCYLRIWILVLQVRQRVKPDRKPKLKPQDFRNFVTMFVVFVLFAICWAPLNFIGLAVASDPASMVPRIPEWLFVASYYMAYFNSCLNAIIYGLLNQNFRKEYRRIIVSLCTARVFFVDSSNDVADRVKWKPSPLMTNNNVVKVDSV

Results are given in words; binding and its absence hold for the method and conditions named. In cells and extracts the contact can be indirect. Some results given as binding are weak or reduced against the parent protein; the word gives no strength.

The target in assay [1] is dopamine D3 receptor fused to Renilla luciferase (human) (UniProt P35462). Put plainly: FRET or BRET; BRET saturation in HEK-293T cells co-transfected with a constant amount of D3R-Rluc cDNA (0.7 ug) and increasing amounts of receptor-YFP cDNA; 48 h after transfection; HBSS pH 7.4 with 0.1% glucose; 5 uM coelenterazine H.
The target of assay [2] is dopamine D3 receptor (endogenous) (human (endogenous in 59HCE cells and human ciliary body)) (UniProt P35462). Put plainly: proximity ligation; in situ on 10 um sections of human ciliary body from normotensive (n = 2) and glaucoma (n = 2) donors; anti-D3R-PLUS and anti-MT1R- or anti-MT2R-MINUS probes (Duolink); signal lower in glaucoma samples.
Assay [3] has the same target. Put plainly: proximity ligation; fixed, permeabilised 59HCE cells; anti-D3R antibody with PLUS oligonucleotide, anti-MT1R or anti-MT2R antibody with MINUS oligonucleotide (Duolink); cells also treated 18 h with the TRPV4 agonist GSK1016790A (1-10,000 nM), which lowered the signal.

Regarding “ghrelin receptor GHS-R1a fused to yellow fluorescent protein (from UniProt Q92847 1-366)”, the binding result in assay [1] was “no binding”.

Turning to “melatonin MT1 receptor (endogenous) (from UniProt P48039 1-350)”, the binding result in assay [2] and in assay [3] was “binds” throughout.

B1: melatonin MT2 receptor (endogenous) (receptor, UniProt P49286 1-362)
chain: MSENGSFANCCEAGGWAVRPGWSGAGSARPSRTPRPPWVAPALSAVLIVTTAVDVVGNLLVILSVLRNRKLRNAGNLFLVSLALADLVVAFYPYPLILVAIFYDGWALGEEHCKASAFVMGLSVIGSVFNITAIAINRYCYICHSMAYHRIYRRWHTPLHICLIWLLTVVALLPNFFVGSLEYDPRIYSCTFIQTASTQYTAAVVVIHFLLPIAVVSFCYLRIWVLVLQARRKAKPESRLCLKPSDLRSFLTMFVVFVIFAICWAPLNCIGLAVAINPQEMAPQIPEGLFVTSYLLAYFNSCLNAIVYGLLNQNFRREYKRILLALWNPRHCIQDASKGSHAEGLQSPAPPIIGVQHQADAL
For the molecule B1, the binding entry in assay [2] and in assay [3] was “binds” each time.
